Test results taken from a collection of fitness landscapes (doi:10.1038/s41467-024-54723-y).
The full ranking holds about 18,000 sequences; the median of “TetR repression strength (sort-seq, GFP reporter)” is about 0.23, and the highest 2% start at about 0.68. Some of the results follow.

molecular target: TetR (class B, Tn10) (UniProt P04483); test: TetR repression strength (sort-seq, GFP reporter) (relative to tetO2 = 1); higher = stronger repression; settings: E. coli
Procedure, shortened: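 Repression strength was calculated by subtracting the read-weighted mean bin from the top bin index plus one and dividing by the unaltered operator's value. The plasmid library was low-copy in E. coli SIG10-MAX, with eight randomized operator positions between a constitutive promoter and sfGFP and constitutive TetR. Cultures grew 5 h at 37 °C in LB containing 50 µg/mL chloramphenicol before 10^6 cells were sorted by FACS into 13 fluorescence bins, each sequenced on Illumina. Three independent transformations were averaged for members having ≥30 reads in all replicates and a CV ≤0.5.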

Chain of UniProt P04483 (P04483 whole entry): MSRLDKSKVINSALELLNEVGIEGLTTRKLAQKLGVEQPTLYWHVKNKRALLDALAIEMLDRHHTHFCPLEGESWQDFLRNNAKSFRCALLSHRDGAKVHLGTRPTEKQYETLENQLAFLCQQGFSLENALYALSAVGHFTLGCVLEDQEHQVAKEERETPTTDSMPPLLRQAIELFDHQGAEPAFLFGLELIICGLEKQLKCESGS

In order of falling TetR repression strength:
1. TCCCTATCAGTGTTAGAGA  0.974
2. TCCCGGGTAGTTCGGGAGA  0.723
3. TCCCAACAAGTGCGGGAGA  0.659
4. TCCCCGCGAGTTAAGGAGA  0.61
5. TCCCCCTGAGTCGACGAGA  0.607
6. TCCCTTGCAGTAGTGGAGA  0.591
7. TCCCCAACAGTATCCGAGA  0.572
8. TCCCGCATAGTAGAGGAGA  0.556
9. TCCCACTCAGTAATTGAGA  0.548
10. TCCCTACTAGTCGTTGAGA  0.545
11. TCCCAGAGAGTACTGGAGA  0.515
12. TCCCACGGAGTTTAGGAGA  0.51
13. TCCCTGTGAGTGTCCGAGA  0.484
14. TCCCCTTGAGTCTGCGAGA  0.45
15. TCCCTGCTAGTTCCCGAGA  0.449
16. TCCCGCTCAGTGATTGAGA  0.43
17. TCCCCTGTAGTGGGGGAGA  0.428
18. TCCCCGGCAGTTACTGAGA  0.415
19. TCCCTTTGAGTATTTGAGA  0.415
20. TCCCCCTTAGTGAAAGAGA  0.397
21. TCCCGACCAGTGTAGGAGA  0.397
22. TCCCGGGAAGTATTCGAGA  0.391
23. TCCCGCTCAGTCAGCGAGA  0.388
24. TCCCCTCGAGTAAGCGAGA  0.383
25. TCCCGATAAGTAGTGGAGA  0.376
26. TCCCCGCTAGTGCAAGAGA  0.376
27. TCCCGACGAGTCTTTGAGA  0.366
28. TCCCTTACAGTCTCCGAGA  0.363
29. TCCCGGGGAGTCGCGGAGA  0.362
30. TCCCCACGAGTTATTGAGA  0.361
31. TCCCTGCCAGTTGCGGAGA  0.353
32. TCCCGTTTAGTCTTAGAGA  0.334
33. TCCCTCTAAGTAGGGGAGA  0.334
34. TCCCGTTAAGTGCGTGAGA  0.329
35. TCCCGGGCAGTGAAAGAGA  0.322
36. TCCCTTCGAGTAAAGGAGA  0.321
37. TCCCGTCAAGTGGCAGAGA  0.318
38. TCCCTGTTAGTCCTTGAGA  0.316
39. TCCCTAGGAGTTTTTGAGA  0.313
40. TCCCTTTGAGTTTTCGAGA  0.304
41. TCCCGTTAAGTCTTGGAGA  0.302
42. TCCCGCGGAGTCATAGAGA  0.299
43. TCCCGACAAGTCTATGAGA  0.295
44. TCCCAGGTAGTCGGGGAGA  0.295
45. TCCCCGACAGTACAGGAGA  0.29
46. TCCCAGCGAGTGGCGGAGA  0.289
47. TCCCTAGAAGTAATTGAGA  0.287
48. TCCCAGTCAGTTCGAGAGA  0.282
49. TCCCTTGTAGTGAATGAGA  0.277
50. TCCCCGGAAGTGCCTGAGA  0.276
51. TCCCACTTAGTAGCGGAGA  0.271
52. TCCCAGGGAGTATGAGAGA  0.269
53. TCCCACTCAGTGTCTGAGA  0.267
54. TCCCCAAGAGTCCTAGAGA  0.267
55. TCCCACATAGTAAGAGAGA  0.265
56. TCCCCATCAGTTGGGGAGA  0.263
57. TCCCGGCCAGTAAGGGAGA  0.261
58. TCCCGCAAAGTGCGCGAGA  0.261
59. TCCCAATTAGTTTAGGAGA  0.259
60. TCCCAATGAGTTAACGAGA  0.259
61. TCCCCATCAGTGGCGGAGA  0.258
62. TCCCCGCAAGTCCGGGAGA  0.25
63. TCCCGGTCAGTAGAGGAGA  0.248
64. TCCCCAGGAGTGGCAGAGA  0.248
65. TCCCGGCGAGTCGAAGAGA  0.244
66. TCCCGAGCAGTTAGGGAGA  0.242
67. TCCCGGTCAGTATCGGAGA  0.238
68. TCCCCGTTAGTCTGGGAGA  0.238
69. TCCCCAAGAGTCGATGAGA  0.238
70. TCCCGTGGAGTGAAAGAGA  0.237
71. TCCCGTGCAGTCCGGGAGA  0.236
72. TCCCTGTTAGTAGTGGAGA  0.236
73. TCCCCGTGAGTGGAGGAGA  0.234
74. TCCCAGGTAGTCTCTGAGA  0.232
75. TCCCACGGAGTGGGGGAGA  0.232
76. TCCCAGCAAGTCCATGAGA  0.23
77. TCCCGACTAGTCCGTGAGA  0.229
78. TCCCAAATAGTCAGAGAGA  0.225
79. TCCCCGAAAGTTGTGGAGA  0.217
80. TCCCAAGAAGTACAGGAGA  0.216
81. TCCCGCGCAGTGAATGAGA  0.214
82. TCCCGATCAGTGGTCGAGA  0.212
83. TCCCGGCAAGTATTCGAGA  0.211
84. TCCCCTGGAGTGCTAGAGA  0.209
85. TCCCCTTGAGTTGTTGAGA  0.207
86. TCCCGGAGAGTTGCAGAGA  0.207
87. TCCCCAGTAGTCCGCGAGA  0.207
88. TCCCATGGAGTTGCTGAGA  0.203
89. TCCCGCCGAGTTCGGGAGA  0.203
90. TCCCACGTAGTAGGTGAGA  0.201
91. TCCCATAGAGTAATAGAGA  0.198
92. TCCCGGGGAGTGCCTGAGA  0.195
93. TCCCGGAGAGTGGCTGAGA  0.191
94. TCCCAGTTAGTGTTCGAGA  0.189
95. TCCCCATGAGTTAGCGAGA  0.188
96. TCCCTTCCAGTATGGGAGA  0.185
97. TCCCACGAAGTGCGTGAGA  0.185
98. TCCCGGCGAGTTGCGGAGA  0.185
99. TCCCCCTCAGTCAGGGAGA  0.179
100. TCCCTCATAGTGTCAGAGA  0.178
101. TCCCTCAGAGTGAGTGAGA  0.173
102. TCCCTCGTAGTGTAGGAGA  0.171
103. TCCCAGCCAGTTGGCGAGA  0.171
104. TCCCAAAGAGTTGGAGAGA  0.17
105. TCCCGATCAGTAGGAGAGA  0.167
106. TCCCCTTAAGTGCGGGAGA  0.159
107. TCCCCCGAAGTTAAGGAGA  0.155
108. TCCCCGTCAGTGGCGGAGA  0.143
109. TCCCCTAAAGTGTTGGAGA  0.14
110. TCCCAGTTAGTCTGTGAGA  0.132
111. TCCCGTGAAGTTGTCGAGA  0.127
112. TCCCGGGAAGTGCCGGAGA  0.127
113. TCCCCGGGAGTTAGGGAGA  0.123
114. TCCCCTCTAGTAGGTGAGA  0.12
115. TCCCTGTGAGTGGATGAGA  0.117
116. TCCCGGGGAGTCCTGGAGA  0.115
117. TCCCGCCGAGTACGCGAGA  0.104
118. TCCCATGAAGTTATTGAGA  0.104
119. TCCCGAGAAGTGCACGAGA  0.104
120. TCCCTCGGAGTGTGCGAGA  0.09
121. TCCCTGGGAGTTGGCGAGA  0.0578
122. TCCCGCGAAGTCGTGGAGA  0.0576
123. TCCCTGTTAGTTGGGGAGA  0.0518
124. TCCCCCCTAGTGTAGGAGA  0.0465
125. TCCCTTGGAGTACGGGAGA  0.0347
126. TCCCGATAAGTCGTCGAGA  0.0276
127. TCCCCATCAGTCGCTGAGA  0.0264
128. TCCCTAGGAGTTGATGAGA  0.0259
129. TCCCATCTAGTAGGGGAGA  0.0156
130. TCCCTTGTAGTCTAAGAGA  0.00732
